Measurements: the supplement of paper PMC3334620
Over roughly 33,000 sequences, “E-score (-0.5 to 0.5)” has its median near -0.01; the highest 2% begin near 0.26. The list shows a part of the results.

The sequences below were run against Ste12 (UniProt P13574) (assay: PBM E-score (8-mer binding enrichment) (E-score (-0.5 to 0.5)); higher = stronger / more preferred TF binding; most listed sequences are background and not binding sites). Conditions: protein concentration: 200 nM; construct: GST-DNA-binding domain.
In short: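 Universal all-10-mer Agilent arrays, fresh or stripped once, were converted to double-stranded form by primer extension. GST-tagged yeast transcription factors from PURExpress in vitro transcription/translation, full-length or DNA-binding domain only, were applied at about 100-200 nM and detected with fluorescent anti-GST. After masliner normalisation, the Universal PBM Analysis Suite scored each ungapped eight-base word together with its reverse complement by E-score.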

| Sequence | PBM E-score |
| --- | --- |
| GCCTTGCA | 0.129 |
| CCTCTAAA | 0.0468 |
| AGCATCTC | -0.0632 |
| AGCAGAGC | -0.177 |
| AGGACGTC | -0.0457 |
| CATAAGGC | -0.0753 |
| GGAAGCAA | -0.112 |
| GACACGGC | 0.0846 |
| ATCATTTA | 0.143 |
| ATTGCGCG | 0.152 |
| GAAACATC | 0.355 |
| GAATGCCC | -0.0216 |
| ATGTGGAG | 0.0113 |
| CACGCCCG | 0.092 |
| CCAGATTC | -0.189 |
| TCGCAGCA | -0.0978 |
| ACCTAATC | 0.0677 |
| AAAGATAT | 0.273 |
| CTCCCAAG | -0.135 |
| GTCCTTCA | 0.0644 |
| ATGCCTGA | -0.13 |
| ATTAGCCC | -0.0329 |
| TCGCATAA | 0.174 |
| GTGATACA | 0.195 |
| CATCCGTC | 0.0324 |

| Sequence | PBM E-score |
| --- | --- |
| AGATTGCC | -0.0504 |
| CGACAATA | 0.183 |
| AGGTGCTG | -0.11 |
| AAAATTAG | 0.31 |
| AACGAGAC | -0.00626 |
| CATACAAA | 0.162 |
| AAACCCTG | 0.244 |
| CCCCAGCG | -0.0885 |
| CACTCGGG | -0.215 |
| TACCCCAA | 0.0124 |
| CTCACGTA | -0.196 |
| AAGTTTAA | 0.0593 |
| AAAGGGTT | -0.00599 |
| CGAACGTC | -0.123 |
| ACATACAA | 0.13 |
| GACCTGCA | -0.0464 |
| AATACAGT | -0.0112 |
| AACAGCCA | -0.019 |
| CTCTAATA | 0.0155 |
| ACCTCGTG | -0.063 |
| CGAGTTCA | -0.00895 |
| AAGGATAC | -0.271 |
| GGGCCTAA | -0.236 |
| CCTTTACA | -0.103 |
| CCACGATA | 0.18 |

| Sequence | PBM E-score |
| --- | --- |
| ATGTCGTC | -0.178 |
| ACTTCGCC | 0.0833 |
| AAGGGTTC | -0.181 |
| ACTTATTG | 0.171 |
| ATTATGTG | 0.18 |
| AAACTGAA | 0.268 |
| ACGACCGG | -0.147 |
| TAACTGTA | 0.126 |
| AGTTACGC | -0.184 |
| GCCACGAC | 0.0374 |
| AGTAGAGG | -0.264 |
| ATAGACGG | 0.0292 |
| AGCGAGAG | 0.0811 |
| CTGACCAG | -0.111 |
| GCACTGTA | 0.025 |
| CTACATCA | 0.0901 |
| TAGTATCA | 0.17 |
| GAAAGGAA | 0.0531 |
| AGGTGATG | -0.15 |
| CCATGGAA | -0.0422 |
| GTGTGGAA | 0.192 |
| CTCTGTTA | 0.141 |
| ATTGGAAC | 0.116 |
| AATGACCT | -0.0302 |
| AGGGTGAT | 0.053 |

| Sequence | PBM E-score |
| --- | --- |
| CGAATCGC | -0.00036 |
| CTCACCGC | 0.0432 |
| GCACCCGC | -0.0378 |
| AGTTAATA | 0.0746 |
| AGACAGCT | -0.111 |
| ACGCCTTC | -0.193 |
| AGACCTCT | -0.135 |
| ATAGGTAA | 0.0657 |
| CTTGAGAC | 0.158 |
| CATGACCG | -0.0106 |
| CACGAATG | 0.0379 |
| ACTGCACT | -0.184 |
| CGCAAAAC | 0.0853 |
| AGTCGCCA | -0.27 |
| CTCTTAAG | -0.0926 |
| ATCCCCGG | 0.00117 |
| CTTTGAGC | -0.18 |
| CGAAGACC | -0.0792 |
| ATGCCCAT | -0.281 |
| ACTGCACA | -0.235 |
| CATCGTCG | -0.0289 |
| ACACAAGG | -0.192 |
| ATAGGTCG | -0.0327 |
| GGGAAGAA | 0.0723 |
| TCCTTCCA | -0.0945 |

| Sequence | PBM E-score |
| --- | --- |
| CATTATTC | 0.0605 |
| ATCCTGCG | -0.182 |
| TGCTCCAA | 0.063 |
| ACATGAAC | 0.0476 |
| ATCACAGG | -0.0882 |
| CAAGCGCA | 0.0662 |
| CTTCTGAC | -0.102 |
| CCATAGGC | -0.0498 |
| ACGAGCTG | -0.0751 |
| CCGTGCTA | -0.0463 |
| ACTCAGCC | 0.0119 |
| AATTTCTG | 0.163 |
| GAGCATAA | 0.131 |
| AAATTTAA | 0.289 |
| ATACGTAG | -0.125 |
| GTTCTGCA | -0.205 |
| CCCAGTCG | 0.012 |
| AAACGTAC | -0.146 |
| ATGCTACG | -0.0768 |
| TCTCGTAA | -0.0365 |
| GTATTCAC | 0.0258 |
| TCGCTACA | -0.0739 |
| ATGAATGC | 0.138 |
| ACCGGCGT | -0.0423 |
| ATGACAAT | -0.028 |

| Sequence | PBM E-score |
| --- | --- |
| CTCATAAC | -0.0159 |
| CAGGCTGA | 0.039 |
| CGCCTCTC | -0.193 |
| GAATGCTC | -0.262 |
| TAAAGACA | -0.0651 |
| CCACCAAC | -0.0807 |
| GATTGGCC | -0.284 |
| AAACAGTT | 0.245 |
| ACTGCCGA | -0.0319 |
| CACACAAC | 0.0607 |
| GCTACAGC | 0.0784 |
| ACTTTTCT | 0.183 |
| ATGCTGCA | -0.223 |
| GCCCCCCA | -0.248 |
| AGTTGCAA | 0.0159 |
| AAGACTCA | -0.133 |
| AGTAGCAT | 0.0568 |
| AAACTTGA | 0.0828 |
| ACGCACTC | -0.0692 |
| ACATACGC | -0.0224 |
| AAATACTT | 0.126 |
| GGCGTAAC | -0.213 |
| ATGATACA | 0.294 |
| AGAGACCA | -0.185 |
| AACGACTA | -0.00221 |

| Sequence | PBM E-score |
| --- | --- |
| TCCGGCAA | 0.0748 |
| CGAGGTAA | 0.16 |
| CTTAGGTA | 0.0168 |
| AACCCGCT | 0.0301 |
| ACTGAATA | 0.0269 |
| CGGTTATC | -0.0501 |
| GGTAGATA | 0.125 |
| ATAAACAG | 0.181 |
| CAATCACG | -0.141 |
| TGTAAGAA | 0.111 |
| TAACTAGA | 0.214 |
| AATAATGG | 0.0901 |
| GAACACGC | 0.059 |
| CTGCTGAC | -0.0575 |
| CTAATCTA | -0.0806 |
| AGAACAGC | 0.0361 |
| ATCATAGC | 0.1 |
| GAACTACC | 0.0169 |
| TGACGTCA | 0.0803 |
| AAACCATG | -0.0069 |
| GTCCTAGA | -0.127 |
| GACGATCC | 0.116 |
| ACGCGGCG | 0.027 |
| ACCTTTCA | -0.1 |
| AAGTGCCC | -0.114 |

| Sequence | PBM E-score |
| --- | --- |
| CTATGGGA | -0.134 |
| AAGAGCCT | -0.207 |
| ATGCTAAG | 0.00289 |
| AACGTGTG | -0.123 |
| GCCCAACC | 0.0314 |
| CAGACACG | -0.13 |
| ATATTGTC | 0.115 |
| CTCCAATC | -0.143 |
| AAATCGGG | 0.19 |
| ATATCTAA | 0.241 |
| CTCGGAGA | 0.0521 |
| TCTTAAGA | 0.00892 |
| CTGATTGC | -0.109 |
| GATACAGC | 0.0546 |
| GTCAGATA | 0.0271 |
| ACGCTCAC | -0.0174 |
| AAGGACTC | -0.315 |
| AAACGTAG | 0.0547 |
| ATTAGCGC | 0.0514 |
| ACCCGCCT | -0.12 |
| AACAGTTG | -0.016 |
| TCGAGCCA | -0.272 |
| ATCCACTC | -0.072 |
| ACGGCATA | 0.00284 |
| ACCTTTTG | -0.124 |

| Sequence | PBM E-score |
| --- | --- |
| CTCCAGTC | 0.0501 |
| CGGAAACG | 0.109 |
| AGTGAGGG | -0.146 |
| GGCTATAC | -0.184 |
| AACTTTTG | 0.138 |
| AATCTCGC | -0.0392 |
| AAGCACAA | 0.0259 |
| CAGCATTA | -0.0209 |
| CTAGCCAG | -0.255 |
| CCTCAACG | -0.128 |
| GACCCCCA | -0.223 |
| ATCATTCC | -0.0156 |
| CTACAAAC | -0.0316 |
| ACCTAACT | 0.184 |
| GATGTGGA | -0.048 |
| GAATCCGA | 0.0836 |
| AGGTGAAC | -0.14 |
| CTTCGTAC | -0.0602 |
| CTATACTA | 0.068 |
